Results: patent US9777070B2, “Anti-PTK7 antibody-drug conjugates” (Pfizer Inc., priority 2014, dated 2017)

Columns and labels:
[1] = molecular target: T1, PTK7 on cancer cell lines (Homo sapiens, UniProt Q13308); test: Flow cytometry binding of hu23 and hu24 to cultured cancer cell lines (Example 4); conditions: 10 μg/ml Ab
T1 construct: cancer cell lines with endogenous expression of PTK7; endogenous in cells; host or cells: cultured cancer cell lines (e.g. H661, H446, U2OS, H520, H1048, OE19, OE21, H1975, EKVX)
T1 sequence (Q13308 31-1070): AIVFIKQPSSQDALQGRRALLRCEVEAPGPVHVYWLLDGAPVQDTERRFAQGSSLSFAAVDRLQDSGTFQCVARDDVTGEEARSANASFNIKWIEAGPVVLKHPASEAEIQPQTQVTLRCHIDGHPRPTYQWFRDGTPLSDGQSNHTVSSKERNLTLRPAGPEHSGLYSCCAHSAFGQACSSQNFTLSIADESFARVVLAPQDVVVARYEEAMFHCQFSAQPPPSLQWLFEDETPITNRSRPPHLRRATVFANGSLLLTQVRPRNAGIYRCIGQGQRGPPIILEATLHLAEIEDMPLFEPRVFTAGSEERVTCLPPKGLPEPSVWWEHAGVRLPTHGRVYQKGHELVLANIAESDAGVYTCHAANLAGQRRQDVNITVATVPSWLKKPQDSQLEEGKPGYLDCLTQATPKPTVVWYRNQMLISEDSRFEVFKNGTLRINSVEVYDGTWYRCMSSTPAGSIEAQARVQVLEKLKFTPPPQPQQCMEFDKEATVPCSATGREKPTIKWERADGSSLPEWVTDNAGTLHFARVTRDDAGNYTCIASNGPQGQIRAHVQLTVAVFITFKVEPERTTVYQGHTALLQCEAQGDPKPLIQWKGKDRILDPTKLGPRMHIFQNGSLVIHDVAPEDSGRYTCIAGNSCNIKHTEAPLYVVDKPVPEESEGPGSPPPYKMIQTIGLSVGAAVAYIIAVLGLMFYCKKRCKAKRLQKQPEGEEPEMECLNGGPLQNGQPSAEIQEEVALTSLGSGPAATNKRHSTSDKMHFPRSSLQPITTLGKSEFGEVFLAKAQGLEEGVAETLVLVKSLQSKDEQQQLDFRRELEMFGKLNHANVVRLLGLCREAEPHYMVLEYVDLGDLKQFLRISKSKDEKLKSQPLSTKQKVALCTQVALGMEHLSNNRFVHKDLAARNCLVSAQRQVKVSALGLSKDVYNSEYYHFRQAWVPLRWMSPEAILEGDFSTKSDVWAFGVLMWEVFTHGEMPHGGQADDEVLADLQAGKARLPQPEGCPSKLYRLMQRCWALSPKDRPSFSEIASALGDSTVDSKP
Method: Adherent cells were dissociated using TrypLE Express (GIBCO), neutralized with cell culture media and counted. Cells were plated into a U-bottom 96-well plate with 5×10^5 cells/100 μL media/well. The plate was centrifuged at 300×g, for 5 minutes at 4° C. to pellet cells and the supernatant was discarded. […] The plate was centrifuged and the cell pellets were washed in 200 μL ice-cold 3% BSA in PBS. Each cell pellet was resuspended in 100 μL of R-phycoerythrin (PE)-conjugated goat anti-human IgG Fc fragment that had been diluted 1:50 in 3% BSA in PBS, and the plate was incubated on ice for 30 minutes. The plate was centrifuged and the cell pellets were washed in 200 μL of 3% BSA in PBS at 4° C. Each pellet was resuspended in 100 μL 3% BSA in PBS and transferred to a 5 mL polycarbonate tube containing 250 μL 3% BSA in PBS. The samples were analyzed by flow cytometry using 5 μL 7-Amino-Actinomycin D (7-AAD) staining solution per sample as a viability stain. Non-viable cells were excluded from the analysis.

[2] = assay type: in vivo, mouse; conditions: BR13 PDX and BR22 PDX; three time points following the third administration; data not shown
Excerpt: For efficacy studies, tumors were harvested from passaging studies and cells were dissociated into single cell suspension. Preparations were counted for live cells using Trypan blue exclusion and 10,000 to 50,000 cells were inoculated per mouse in Matrigel. […] Tumor growth was initially followed by palpability with measurements beginning once tumor volumes reached about 30 mm^3. Studies were randomized based on tumor size once a cohort of tumor-bearing mice reached 140 mm^3 to 180 mm^3. Animals were dosed by intraperitoneal injection twice a week for two weeks (q4dx4). Study groups were followed until individual mice or entire group tumor measurements reached 1200 mm^3 when sacrifice was indicated in accordance with IACUC protocol. For selected dosing studies, pharmacokinetic submandibular bleeds were performed at 2 hours, 36 hours and 72 hours. A volume of 10 μL of blood was immediately pipetted into 90 μL of HBS-P (GE Healthcare). Samples were stored at −80° C. prior to analysis. […]
To confirm exposure of hu24-vc0101 ADC in the efficacy studies, plasma concentrations of ADC and total antibody were determined for two PDX models, BR13 PDX and BR22 PDX. Samples were collected at three time points following the third administration of ADC and concentrations were measured by Ligand Binding Assay (LBA) (data not shown).

B1: hu24 (antibody)
heavy: QVQLVQSGPEVKKPGASVKVSCKASGYTFTDYAVHWVRQAPGKRLEWIGVISTYNDYTYNNQDFKGRVTMTRDTSASTAYMELSRLRSEDTAVYYCARGNSYFYALDYWGQGTSVTVSS[letters of human IgG1 constant region omitted]
light: EIVLTQSPATLSLSPGERATLSCRASESVDSYGKSFMHWYQQKPGQAPRLLIYRASNLESGIPARFSGSGSGTDFTLTISSLEPEDFAVYYCQQSNEDPWTFGGGTKLEIKRTVAAPSVFIFPPSDEQLKSGTASVVCLLNNFYPREAKVQWKVDNALQSGNSQESVTEQDSKDSTYSLSSTLTLSKADYEKHKVYACEVTHQGLSSPVTKSFNRGEC
Mean Fluorescent Intensity ([1]; ASPC1, Pancreatic): 4.5 | Mean Fluorescent Intensity ([1]; BT-549, Breast (BR)): 114 | Mean Fluorescent Intensity ([1]; BxPC3, Pancreatic): 207 | Mean Fluorescent Intensity ([1]; DMS79, Lung (SCLC)): 682 | Mean Fluorescent Intensity ([1]; DMS114, Lung (SCLC)): 793 | Mean Fluorescent Intensity ([1]; DU4475, Breast (BR)): 697 | Mean Fluorescent Intensity ([1]; EKVX, Lung (NSCLC)): 3.8 | Mean Fluorescent Intensity ([1]; H69, Lung (SCLC)): 404 | Mean Fluorescent Intensity ([1]; H358, Lung (NSCLC)): 474 | Mean Fluorescent Intensity ([1]; H446, Lung (SCLC)): 937 | Mean Fluorescent Intensity ([1]; H520, Lung (NSCLC)): 1384 | Mean Fluorescent Intensity ([1]; H522, Lung (NSCLC)): 672 | Mean Fluorescent Intensity ([1]; H526, Lung (NSCLC)): 438 | Mean Fluorescent Intensity ([1]; H596, Lung (NSCLC)): 355 | Mean Fluorescent Intensity ([1]; H661, Lung (NSCLC)): 376 | Mean Fluorescent Intensity ([1]; H1048, Lung (SCLC)): 955 | Mean Fluorescent Intensity ([1]; H1299, Lung (NSCLC)): 70.9 | Mean Fluorescent Intensity ([1]; H1975, Lung (NSCLC)): 444 | Mean Fluorescent Intensity ([1]; H2110, Lung (NSCLC)): 171 | Mean Fluorescent Intensity ([1]; HCC38, Breast (BR)): 227 | Mean Fluorescent Intensity ([1]; HCC70, Breast (BR)): 474 | Mean Fluorescent Intensity ([1]; HCC827, Lung (NSCLC)): 251 | Mean Fluorescent Intensity ([1]; HCC1806, Breast (BR)): 77.5 | Mean Fluorescent Intensity ([1]; HCC1937, Breast (BR)): 370 | Mean Fluorescent Intensity ([1]; HCT116, Colon): 629 | Mean Fluorescent Intensity ([1]; HEL92.1, Erythroleukemia (AML)): 23 | Mean Fluorescent Intensity ([1]; HEL, Erythroleukemia (AML)): 46 | Mean Fluorescent Intensity ([1]; HL60, Promyelocytic leukemia (AML)): 12.7 | Mean Fluorescent Intensity ([1]; HL60 MX2, Promyelocytic leukemia (AML)): 25.7 | Mean Fluorescent Intensity ([1]; Hs578T, Breast (BR)): 124 | Mean Fluorescent Intensity ([1]; Hs700T, Pancreatic): 241 | Mean Fluorescent Intensity ([1]; K562, Chronic Myelogenous leukemia (CML)): 56.1 | Mean Fluorescent Intensity ([1]; KG1, Erythroleukemia (AML)): 159 | Mean Fluorescent Intensity ([1]; Kasumi-1, Erythroleukemia (AML)): 68.2 | Mean Fluorescent Intensity ([1]; MDAMB361-DYT2, Breast (BR)): 295 | Mean Fluorescent Intensity ([1]; MDAMB436, Breast (BR)): 189 | Mean Fluorescent Intensity ([1]; MDAMB468, Breast (BR)): 364 | Mean Fluorescent Intensity ([1]; MV411, Monocytic leukemia): 10.1 | Mean Fluorescent Intensity ([1]; MiaPaca, Pancreatic): 611 | Mean Fluorescent Intensity ([1]; NB4, Promyelocytic leukemia (AML)): 19.5 | Mean Fluorescent Intensity ([1]; RL, Non-Hodgkin's lymphoma (NHL)): 44.2 | Mean Fluorescent Intensity ([1]; RPMI8226, Multiple myeloma): 17.8 | Mean Fluorescent Intensity ([1]; Raji, Non-Hodgkin's lymphoma (NHL)): 36.3 | Mean Fluorescent Intensity ([1]; SKBR3, Breast (BR)): 39.7 | Mean Fluorescent Intensity ([1]; TF1, Erythroleukemia (AML)): 135 | Mean Fluorescent Intensity ([1]; TF1a, Erythroleukemia (AML)): 208 | Mean Fluorescent Intensity ([1]; THP-1, Monocytic leukemia): 4.0 | Mean Fluorescent Intensity ([1]; U937, Monocytic leukemia): 5.8

B2: hu24-vc0101: hu24 conjugated through cysteines to vc0101 linker-payload; average DAR approximately 4 (conjugate)
heavy: QVQLVQSGPEVKKPGASVKVSCKASGYTFTDYAVHWVRQAPGKRLEWIGVISTYNDYTYNNQDFKGRVTMTRDTSASTAYMELSRLRSEDTAVYYCARGNSYFYALDYWGQGTSVTVSS[letters of human IgG1 constant region omitted]
light: EIVLTQSPATLSLSPGERATLSCRASESVDSYGKSFMHWYQQKPGQAPRLLIYRASNLESGIPARFSGSGSGTDFTLTISSLEPEDFAVYYCQQSNEDPWTFGGGTKLEIKRTVAAPSVFIFPPSDEQLKSGTASVVCLLNNFYPREAKVQWKVDNALQSGNSQESVTEQDSKDSTYSLSSTLTLSKADYEKHKVYACEVTHQGLSSPVTKSFNRGEC
plasma exposure of ADC and total antibody [2]: drug exposures were comparable in these tumor models
